Here are results for one molecule from publication PMC7170532 (2020).

The assay concerns the target SRK-015. In words: BLI. For orientation: In BLI a coated tip is dipped into the sample, and binding shifts an interference pattern.

Chain of SRK-015 (O14793 other isoform, or with tags, fused parts or gaps): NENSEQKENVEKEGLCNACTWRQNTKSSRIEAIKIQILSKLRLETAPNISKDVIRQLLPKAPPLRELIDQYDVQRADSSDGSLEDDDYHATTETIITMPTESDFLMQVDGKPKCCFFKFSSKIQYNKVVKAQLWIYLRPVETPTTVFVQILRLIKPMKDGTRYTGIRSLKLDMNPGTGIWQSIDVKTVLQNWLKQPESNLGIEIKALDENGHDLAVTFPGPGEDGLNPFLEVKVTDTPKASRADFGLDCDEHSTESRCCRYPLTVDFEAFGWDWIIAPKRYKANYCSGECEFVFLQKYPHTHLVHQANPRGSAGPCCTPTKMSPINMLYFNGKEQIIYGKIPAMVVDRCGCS

B1: pro-myostatin (uncleavable precursor, D99A/R263A/R266A) (natural protein)
chain: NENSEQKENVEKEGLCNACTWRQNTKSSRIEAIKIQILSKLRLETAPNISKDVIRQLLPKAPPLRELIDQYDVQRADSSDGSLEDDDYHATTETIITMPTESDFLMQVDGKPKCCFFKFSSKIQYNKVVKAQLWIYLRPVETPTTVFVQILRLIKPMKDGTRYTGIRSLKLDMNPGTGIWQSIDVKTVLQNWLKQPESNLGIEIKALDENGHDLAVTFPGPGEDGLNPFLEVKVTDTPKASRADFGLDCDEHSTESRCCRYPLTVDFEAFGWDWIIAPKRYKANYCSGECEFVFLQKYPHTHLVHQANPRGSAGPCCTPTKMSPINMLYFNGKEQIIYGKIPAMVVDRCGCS
Broadly, the Kd is a measure of binding affinity in units of concentration. Higher therefore signals lower affinity. In turn, B1 registered a Kd of 0.821 nM.
